# Results reported in the supplement of paper PMC11876631.
# ± gives the standard deviation of the averaged measurements. Laboratory Escherichia coli strains with one amino-acid change in an essential protein, pooled on minimal glucose agar with carbenicillin or gentamicin at twice the control MIC (plus kanamycin and chloramphenicol for the plasmids), 48 h. Fold change of barcode share against drug-free plates; higher = less susceptible. Active = above 20 in both replicates (the paper's putatively resistant). '<' = one read or none on drug, '>' = one read or none on a drug-free plate. Shares are relative, so most strains fall below 1 when a few take over. Listed are strains with at least 15 reads on both drug-free plates, and hits; most hits rest on fewer reference reads. Replicate rank correlation about 0.5. Edits are read from barcodes.
# B1: cdsA L20P (protein)
# chain: MLKYRLISAFVLIPVVIAAPFLLPPVGFAIVTLVVCMLAAWEWGQLSGFTTRSQRVWLAVLCGLLLALMLFLLPEYHRNIHQPLVEISLWASLGWWIVALLLVLFYPGSAAIWRNSKTLRLIFGVLTIVPFFWGMLALRAWHYDENHYSGAIWLLYVMILVWGADSGAYMFGKLFGKHKLAPKVSPGKTWQGFIGGLATAAVISWGYGMWANLDVAPVTLLICSIVAALASVLGDLTESMFKREAGIKDSGHLIPGHGGILDRIDSLTAAVPVFACLLLLVFRTL
# B2: cdsA I122W (protein)
# chain: MLKYRLISAFVLIPVVIAALFLLPPVGFAIVTLVVCMLAAWEWGQLSGFTTRSQRVWLAVLCGLLLALMLFLLPEYHRNIHQPLVEISLWASLGWWIVALLLVLFYPGSAAIWRNSKTLRLWFGVLTIVPFFWGMLALRAWHYDENHYSGAIWLLYVMILVWGADSGAYMFGKLFGKHKLAPKVSPGKTWQGFIGGLATAAVISWGYGMWANLDVAPVTLLICSIVAALASVLGDLTESMFKREAGIKDSGHLIPGHGGILDRIDSLTAAVPVFACLLLLVFRTL
# B3: cdsA I203Q (protein)
# chain: MLKYRLISAFVLIPVVIAALFLLPPVGFAIVTLVVCMLAAWEWGQLSGFTTRSQRVWLAVLCGLLLALMLFLLPEYHRNIHQPLVEISLWASLGWWIVALLLVLFYPGSAAIWRNSKTLRLIFGVLTIVPFFWGMLALRAWHYDENHYSGAIWLLYVMILVWGADSGAYMFGKLFGKHKLAPKVSPGKTWQGFIGGLATAAVQSWGYGMWANLDVAPVTLLICSIVAALASVLGDLTESMFKREAGIKDSGHLIPGHGGILDRIDSLTAAVPVFACLLLLVFRTL
# B4: cdsA L221Q (protein)
# chain: MLKYRLISAFVLIPVVIAALFLLPPVGFAIVTLVVCMLAAWEWGQLSGFTTRSQRVWLAVLCGLLLALMLFLLPEYHRNIHQPLVEISLWASLGWWIVALLLVLFYPGSAAIWRNSKTLRLIFGVLTIVPFFWGMLALRAWHYDENHYSGAIWLLYVMILVWGADSGAYMFGKLFGKHKLAPKVSPGKTWQGFIGGLATAAVISWGYGMWANLDVAPVTLQICSIVAALASVLGDLTESMFKREAGIKDSGHLIPGHGGILDRIDSLTAAVPVFACLLLLVFRTL
# B5: cdsA I122P (protein)
# chain: MLKYRLISAFVLIPVVIAALFLLPPVGFAIVTLVVCMLAAWEWGQLSGFTTRSQRVWLAVLCGLLLALMLFLLPEYHRNIHQPLVEISLWASLGWWIVALLLVLFYPGSAAIWRNSKTLRLPFGVLTIVPFFWGMLALRAWHYDENHYSGAIWLLYVMILVWGADSGAYMFGKLFGKHKLAPKVSPGKTWQGFIGGLATAAVISWGYGMWANLDVAPVTLLICSIVAALASVLGDLTESMFKREAGIKDSGHLIPGHGGILDRIDSLTAAVPVFACLLLLVFRTL
# B6: cdsA V125W (protein)
# chain: MLKYRLISAFVLIPVVIAALFLLPPVGFAIVTLVVCMLAAWEWGQLSGFTTRSQRVWLAVLCGLLLALMLFLLPEYHRNIHQPLVEISLWASLGWWIVALLLVLFYPGSAAIWRNSKTLRLIFGWLTIVPFFWGMLALRAWHYDENHYSGAIWLLYVMILVWGADSGAYMFGKLFGKHKLAPKVSPGKTWQGFIGGLATAAVISWGYGMWANLDVAPVTLLICSIVAALASVLGDLTESMFKREAGIKDSGHLIPGHGGILDRIDSLTAAVPVFACLLLLVFRTL
# B7: cdsA I203W (protein)
# chain: MLKYRLISAFVLIPVVIAALFLLPPVGFAIVTLVVCMLAAWEWGQLSGFTTRSQRVWLAVLCGLLLALMLFLLPEYHRNIHQPLVEISLWASLGWWIVALLLVLFYPGSAAIWRNSKTLRLIFGVLTIVPFFWGMLALRAWHYDENHYSGAIWLLYVMILVWGADSGAYMFGKLFGKHKLAPKVSPGKTWQGFIGGLATAAVWSWGYGMWANLDVAPVTLLICSIVAALASVLGDLTESMFKREAGIKDSGHLIPGHGGILDRIDSLTAAVPVFACLLLLVFRTL
# B8: cdsA L221W (protein)
# chain: MLKYRLISAFVLIPVVIAALFLLPPVGFAIVTLVVCMLAAWEWGQLSGFTTRSQRVWLAVLCGLLLALMLFLLPEYHRNIHQPLVEISLWASLGWWIVALLLVLFYPGSAAIWRNSKTLRLIFGVLTIVPFFWGMLALRAWHYDENHYSGAIWLLYVMILVWGADSGAYMFGKLFGKHKLAPKVSPGKTWQGFIGGLATAAVISWGYGMWANLDVAPVTLWICSIVAALASVLGDLTESMFKREAGIKDSGHLIPGHGGILDRIDSLTAAVPVFACLLLLVFRTL
# B9: cdsA L221A (protein)
# chain: MLKYRLISAFVLIPVVIAALFLLPPVGFAIVTLVVCMLAAWEWGQLSGFTTRSQRVWLAVLCGLLLALMLFLLPEYHRNIHQPLVEISLWASLGWWIVALLLVLFYPGSAAIWRNSKTLRLIFGVLTIVPFFWGMLALRAWHYDENHYSGAIWLLYVMILVWGADSGAYMFGKLFGKHKLAPKVSPGKTWQGFIGGLATAAVISWGYGMWANLDVAPVTLAICSIVAALASVLGDLTESMFKREAGIKDSGHLIPGHGGILDRIDSLTAAVPVFACLLLLVFRTL
# B10: cdsA I122A (protein)
# chain: MLKYRLISAFVLIPVVIAALFLLPPVGFAIVTLVVCMLAAWEWGQLSGFTTRSQRVWLAVLCGLLLALMLFLLPEYHRNIHQPLVEISLWASLGWWIVALLLVLFYPGSAAIWRNSKTLRLAFGVLTIVPFFWGMLALRAWHYDENHYSGAIWLLYVMILVWGADSGAYMFGKLFGKHKLAPKVSPGKTWQGFIGGLATAAVISWGYGMWANLDVAPVTLLICSIVAALASVLGDLTESMFKREAGIKDSGHLIPGHGGILDRIDSLTAAVPVFACLLLLVFRTL
# B11: cdsA I122Q (protein)
# chain: MLKYRLISAFVLIPVVIAALFLLPPVGFAIVTLVVCMLAAWEWGQLSGFTTRSQRVWLAVLCGLLLALMLFLLPEYHRNIHQPLVEISLWASLGWWIVALLLVLFYPGSAAIWRNSKTLRLQFGVLTIVPFFWGMLALRAWHYDENHYSGAIWLLYVMILVWGADSGAYMFGKLFGKHKLAPKVSPGKTWQGFIGGLATAAVISWGYGMWANLDVAPVTLLICSIVAALASVLGDLTESMFKREAGIKDSGHLIPGHGGILDRIDSLTAAVPVFACLLLLVFRTL
# B12: cdsA L126W (protein)
# chain: MLKYRLISAFVLIPVVIAALFLLPPVGFAIVTLVVCMLAAWEWGQLSGFTTRSQRVWLAVLCGLLLALMLFLLPEYHRNIHQPLVEISLWASLGWWIVALLLVLFYPGSAAIWRNSKTLRLIFGVWTIVPFFWGMLALRAWHYDENHYSGAIWLLYVMILVWGADSGAYMFGKLFGKHKLAPKVSPGKTWQGFIGGLATAAVISWGYGMWANLDVAPVTLLICSIVAALASVLGDLTESMFKREAGIKDSGHLIPGHGGILDRIDSLTAAVPVFACLLLLVFRTL
# B13: cdsA I122D (protein)
# chain: MLKYRLISAFVLIPVVIAALFLLPPVGFAIVTLVVCMLAAWEWGQLSGFTTRSQRVWLAVLCGLLLALMLFLLPEYHRNIHQPLVEISLWASLGWWIVALLLVLFYPGSAAIWRNSKTLRLDFGVLTIVPFFWGMLALRAWHYDENHYSGAIWLLYVMILVWGADSGAYMFGKLFGKHKLAPKVSPGKTWQGFIGGLATAAVISWGYGMWANLDVAPVTLLICSIVAALASVLGDLTESMFKREAGIKDSGHLIPGHGGILDRIDSLTAAVPVFACLLLLVFRTL
# B14: cdsA L126A (protein)
# chain: MLKYRLISAFVLIPVVIAALFLLPPVGFAIVTLVVCMLAAWEWGQLSGFTTRSQRVWLAVLCGLLLALMLFLLPEYHRNIHQPLVEISLWASLGWWIVALLLVLFYPGSAAIWRNSKTLRLIFGVATIVPFFWGMLALRAWHYDENHYSGAIWLLYVMILVWGADSGAYMFGKLFGKHKLAPKVSPGKTWQGFIGGLATAAVISWGYGMWANLDVAPVTLLICSIVAALASVLGDLTESMFKREAGIKDSGHLIPGHGGILDRIDSLTAAVPVFACLLLLVFRTL
# B15: accA I116A (protein)
# chain: MSLNFLDFEQPIAELEAKIDSLTAVSRQDEKLDINIDEEVHRLREKSVELTRKIFADLGAWQIAQLARHPQRPYTLDYVRLAFDEFDELAGDRAYADDKAIVGGIARLDGRPVMIAGHQKGRETKEKIRRNFGMPAPEGYRKALRLMQMAERFKMPIITFIDTPGAYPGVGAEERGQSEAIARNLREMSRLGVPVVCTVIGEGGSGGALAIGVGDKVNMLQYSTYSVISPEGCASILWKSADKAPLAAEAMGIIAPRLKELKLIDSIIPEPLGGAHRNPEAMAASLKAQLLADLADLDVLSTEDLKNRRYQRLMSYGYA
# Biological target: Escherichia coli (laboratory strain)
# Assay: barcode share on antibiotic plates over drug-free plates; higher = less susceptible
# Conditions: antibiotic: carbenicillin; 2× MIC (3.1 µg/mL)
# Protocol: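 A pool of E. coli strains, each edited to carry one amino-acid change in an essential protein, was grown for 48 h on minimal glucose agar with or without antibiotic; strain barcodes were sequenced; mean of two replicates.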
row,Protein,fold change of barcode share
1,B1,0.266 ± 0.052
2,B2,0.371 ± 0.13
3,B3,0.357 ± 0.13
4,B4,0.235 ± 0.026
5,B5,0.366 ± 0.14
6,B6,0.334 ± 0.28
7,B7,0.396 ± 0.0099
8,B8,0.336 ± 0.17
9,B9,0.45 ± 0.25
10,B10,0.218 ± 0.036
11,B11,0.264 ± 0.15
12,B12,1.37 ± 0.92
13,B13,0.218 ± 0.22
14,B14,0.201 ± 0.0084
15,B15,0.309 ± 0.16

# Same assay, conditions: antibiotic: gentamicin; 2× MIC (MIC 0.45 µg/mL)
row,Protein,fold change of barcode share
1,B1,0.251 ± 0.35
2,B2,0.0151 ± 0.0067
3,B3,< 0.002
4,B4,< 0.00494
5,B5,0.0152 ± 0.0086
6,B6,< 0.0219
7,B7,0.0045 ± 0.0014
8,B8,0.00875 ± 0.0056
9,B9,< 0.00464
10,B10,< 0.00784
11,B11,< 0.00887
12,B12,< 0.0141
13,B13,< 0.0171
14,B14,< 0.0206
15,B15,< 0.0115
